# The supplement of paper PMC3334620
# Over roughly 33,000 sequences, “E-score (-0.5 to 0.5)” has its median near -0.035; the highest 2% begin near 0.35. Some of the results follow.
# Target: T1, Pdr3 (UniProt P33200)
# T1 sequence: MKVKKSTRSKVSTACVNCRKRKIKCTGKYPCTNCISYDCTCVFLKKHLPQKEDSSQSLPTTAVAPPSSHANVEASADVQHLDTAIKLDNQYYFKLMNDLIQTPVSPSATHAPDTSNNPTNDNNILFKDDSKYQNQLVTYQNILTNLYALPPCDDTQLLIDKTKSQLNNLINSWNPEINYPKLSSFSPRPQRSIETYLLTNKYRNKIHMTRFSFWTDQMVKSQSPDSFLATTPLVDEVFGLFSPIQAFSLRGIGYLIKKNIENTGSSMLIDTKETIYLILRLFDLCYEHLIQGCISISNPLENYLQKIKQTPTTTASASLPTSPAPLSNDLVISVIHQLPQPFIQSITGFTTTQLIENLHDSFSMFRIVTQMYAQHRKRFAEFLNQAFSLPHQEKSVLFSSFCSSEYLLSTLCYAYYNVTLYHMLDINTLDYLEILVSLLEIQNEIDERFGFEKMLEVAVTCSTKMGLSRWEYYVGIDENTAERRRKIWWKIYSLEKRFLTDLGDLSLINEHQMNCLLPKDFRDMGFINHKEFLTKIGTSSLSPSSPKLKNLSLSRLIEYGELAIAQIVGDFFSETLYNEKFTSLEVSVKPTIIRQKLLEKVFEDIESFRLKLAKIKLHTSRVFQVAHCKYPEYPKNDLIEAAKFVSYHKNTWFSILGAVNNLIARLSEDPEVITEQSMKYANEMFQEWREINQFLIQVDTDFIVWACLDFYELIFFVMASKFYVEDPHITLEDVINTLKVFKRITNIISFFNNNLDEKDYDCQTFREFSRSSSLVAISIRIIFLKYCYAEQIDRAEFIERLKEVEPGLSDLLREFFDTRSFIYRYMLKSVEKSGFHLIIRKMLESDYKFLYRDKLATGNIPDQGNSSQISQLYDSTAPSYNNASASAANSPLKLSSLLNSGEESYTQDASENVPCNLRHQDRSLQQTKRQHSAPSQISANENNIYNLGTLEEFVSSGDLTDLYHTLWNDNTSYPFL
# Assay: PBM E-score (8-mer binding enrichment) (E-score (-0.5 to 0.5)); higher = stronger / more preferred TF binding; most listed sequences are background and not binding sites
# Conditions: protein concentration: 200 nM; construct: GST-full length
# How it was run: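 Full-length yeast transcription factors or their DNA-binding domains, GST-tagged and expressed with PURExpress, were applied at about 100-200 nM to universal all-10-mer Agilent arrays. These arrays had been made double-stranded by primer extension on fresh or once-stripped slides. Detection used fluorescent anti-GST, normalisation used masliner, and E-scores for ungapped eight-base words pooled with reverse complements came from the Universal PBM Analysis Suite.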
row,Sequence,PBM E-score
1,GAAACACC,0.00818
2,CATAAGGG,-0.0109
3,GCCCACTA,-0.152
4,AGCCTATA,-0.132
5,AGTCCCCG,0.113
6,AATTGATC,0.119
7,AGTGAGAT,-0.0498
8,CCCTTGCG,-0.286
9,ATGCGTAA,-0.171
10,TATACCCA,0.0374
11,CGCAAGTC,-0.0366
12,AGTGTATC,-0.0144
13,AGGGTCGG,0.0674
14,AGAGCACT,-0.06
15,CGGGTATA,0.268
16,AACGACCA,-0.144
17,GGGGGCTA,-0.277
18,AGAACTGG,0.137
19,GGAGGACA,0.0482
20,ATGCTTCA,-0.155
21,AATGGCAT,0.181
22,AATACTGA,-0.146
23,TACAGGGA,-0.142
24,AAGCGACC,0.168
25,CGTCGGAC,0.252

row,Sequence,PBM E-score
1,TAAGACCA,-0.188
2,ACATACGG,0.0566
3,GGTCTAAA,-0.19
4,CTCCACCA,-0.165
5,ACTTTCTA,-0.243
6,GAAACAAC,0.172
7,CGAGCTGC,0.108
8,GGACCAGA,-0.0202
9,CGAGTTGA,0.0225
10,GCACGGAA,0.451
11,GCGCATCA,-0.0112
12,AAAAGGGC,-0.0865
13,AGGTAGAA,-0.104
14,CAGCTTAC,-0.193
15,AAGTCCAA,-0.0468
16,ATCGTACC,0.0118
17,CACGCAAA,-0.129
18,AATTTCCA,-0.0143
19,GGTAGGCA,-0.136
20,AAAGGTGC,-0.094
21,GGGACTAA,-0.0858
22,AGCTGCTC,-0.108
23,CGGCGGTC,0.145
24,CCTCACTC,0.0974
25,AGGCTAAC,-0.177

row,Sequence,PBM E-score
1,GTGTTGTA,-0.144
2,CAACACCC,0.0249
3,CTCGCCCC,-0.0132
4,TAGTAAGA,-0.161
5,ATAATAAG,-0.073
6,CGCGGGAA,0.429
7,GTGAGTTA,-0.0179
8,AGTGATGA,-0.101
9,CTCGCAAG,-0.185
10,AGTATTAA,0.0469
11,CAACTGAA,-0.195
12,ATGGGGCA,-0.115
13,GGAGATCA,0.171
14,ACCCAGGC,-0.0296
15,CCGCCGAA,0.277
16,AACAAGTC,-0.0618
17,CTCGGGGA,0.219
18,AAGACATA,-0.131
19,CTCCAGAA,-0.204
20,ACATCTAT,0.0984
21,GGACATAA,0.0749
22,AGCACCCC,-0.188
23,AATTGGTG,-0.101
24,GCGTCCAC,0.0752
25,ACGGCGTC,0.151

row,Sequence,PBM E-score
1,CGTATAAC,-0.00777
2,GCTTAAAA,0.0175
3,CATTTCCA,-0.0296
4,ATACTGCC,0.176
5,AATGAGCG,0.165
6,CGATATCC,0.178
7,ATAGCTTG,-0.139
8,ACGCTGAT,-0.122
9,AACCGGCT,0.166
10,GTAAAATA,-0.107
11,CAGTGTCC,0.0389
12,CCACCTTA,-0.0834
13,GTCAGGAA,-0.149
14,CTAAGCAC,-0.0338
15,GACTAGGC,-0.267
16,CCCAATGA,-0.141
17,AAGGTGCT,-0.0758
18,TCGAAAGA,-0.144
19,GGATCTAC,-0.047
20,ATACAAGA,-0.167
21,AACTGACC,0.0452
22,CGATGTAA,-0.0743
23,CTCCATCC,-0.00997
24,AACAACCA,-0.0451
25,GGTATGGA,0.0648

row,Sequence,PBM E-score
1,ACGCGTAG,-0.0689
2,CATCACGG,0.152
3,GCAGCCGC,0.163
4,CTAAATTA,0.0482
5,GGTCGCCA,-0.103
6,AGTAGCGC,0.0616
7,GCTTGGAC,-0.164
8,AAAACTTG,-0.119
9,CACGGGAC,0.344
10,GCCCAAGC,0.0248
11,AATGCGAC,0.128
12,CTCCCTTA,-0.245
13,CCCATGTC,0.0536
14,CCATCCTA,-0.128
15,CGGGCCAC,0.244
16,TAGAATCA,-0.0941
17,ATTAACCC,0.123
18,ACTAGTGA,-0.201
19,GCTTATAC,-0.108
20,AGAGAGTA,-0.14
21,TCTGGAAA,-0.165
22,CCCAGGTA,-0.275
23,CCCCTCGA,0.102
24,CAATGGGC,-0.0836
25,CGTGGAGA,-0.0578

row,Sequence,PBM E-score
1,ACGATTCG,0.0555
2,GGCTTAAC,-0.216
3,ATGAGCGG,0.133
4,GAGGCAAC,-0.158
5,AAGGGATG,-0.143
6,TCCACCGA,-0.00664
7,CGCTGCTA,-0.098
8,GTTGGTAA,-0.164
9,ACGTCCAA,0.0097
10,AATAGCCA,-0.194
11,GTTGCAAA,0.0361
12,AATTAATC,-0.041
13,AGGGTCTC,-0.229
14,CTGCATGC,0.0292
15,CTCCGCGC,0.368
16,GATCTCAC,0.0301
17,CCGACTAA,0.181
18,ATCTATGC,-0.104
19,TCTCGTCA,-0.0279
20,AAGATCAA,-0.101
21,GACACTAA,0.063
22,CGCGATAG,0.0599
23,AAACGCAC,-0.0769
24,GAGAACTC,-0.0287
25,AACAGCCC,-0.00973

row,Sequence,PBM E-score
1,ATCGTACG,0.038
2,AGTGCCTC,-0.229
3,ACAGGTAG,-0.27
4,AGCAAGGA,-0.241
5,AAAGTCAT,-0.0971
6,AGCCATTG,-0.219
7,AGATCCAC,0.172
8,AATGTGAC,0.01
9,GAGCGGAA,0.415
10,CACGAGGG,-0.103
11,AGGACTAA,-0.0556
12,CAACGGCC,0.0545
13,AAGTGTAA,-0.21
14,ACTCACTG,-0.191
15,AACAACAA,-0.0952
16,AAACGCGC,0.0111
17,CGTGTGCA,-0.105
18,CACCCGTC,0.215
19,CAAGTGGG,-0.0554
20,AAATGACT,-0.234
21,GCAGGTTA,0.017
22,TACTGCTA,-0.0314
23,ATCTGCTC,-0.0987
24,AAACACAT,-0.0932
25,AGGGCCCT,-0.191

row,Sequence,PBM E-score
1,TGGAGCAA,-0.194
2,AGAATAGC,-0.0551
3,ATCCTCGG,0.3
4,AGTCGTAC,-0.236
5,CCCAATAA,-0.121
6,ACGAGGGG,-0.102
7,GCGTTGAC,-0.16
8,ATCAGACG,-0.00335
9,ACTGCGGG,0.14
10,ATTCTAAG,-0.189
11,AATGTCTC,0.0514
12,AACAATGA,0.0206
13,CCCTCCCC,0.218
14,GAAGAGGA,-0.21
15,ACTCTTCT,-0.176
16,CTAGCTCC,0.0468
17,AGGTCCGA,0.305
18,CCTCAAAC,-0.0238
19,CCACCCCG,0.165
20,AGGGACAG,-0.3
21,CGCCCAAC,0.119
22,CAATGCGA,-0.0915
23,ACCGCTGG,-0.0474
24,CCCGCGCC,0.265
25,AGAACGTA,-0.0336

row,Sequence,PBM E-score
1,AATTAGCG,0.129
2,ACTTCCAG,-0.108
3,AGTAGCCG,0.172
4,AGAGTAAT,0.133
5,TCATTGCA,-0.16
6,TCTCAACA,-0.0614
7,GAACTCGC,0.0969
8,CCCAGCTA,-0.22
9,GCTCATCC,0.139
10,AAACCGCC,0.169
11,CGCACGTA,-0.179
12,ACGCCCCC,0.0517
13,CAGACGTA,-0.192
14,GACCAAGA,-0.00634
15,TTCACAAA,0.0841
16,CAGGGATA,-0.193
17,ACCATTTA,-0.0145
18,CTGCGGTA,-0.0102
19,CCAATGCG,-0.0165
